Like-named read-outs stand apart in the source and are kept apart here.

This note sets out measurements from PMC11637378, “Optogenetic screening of MCT1 activity implicates a cluster of non-steroidal anti-inflammatory drugs (NSAIDs) as inhibitors of lactate transport” (PLOS ONE, 2024).

In this assay the target is T1, R. norvegicus MCT1 (F360C) (UniProt P36035+P53987, F360C).
T1 sequence (P36035+P53987 with tags, fused parts or gaps P53987:F360C): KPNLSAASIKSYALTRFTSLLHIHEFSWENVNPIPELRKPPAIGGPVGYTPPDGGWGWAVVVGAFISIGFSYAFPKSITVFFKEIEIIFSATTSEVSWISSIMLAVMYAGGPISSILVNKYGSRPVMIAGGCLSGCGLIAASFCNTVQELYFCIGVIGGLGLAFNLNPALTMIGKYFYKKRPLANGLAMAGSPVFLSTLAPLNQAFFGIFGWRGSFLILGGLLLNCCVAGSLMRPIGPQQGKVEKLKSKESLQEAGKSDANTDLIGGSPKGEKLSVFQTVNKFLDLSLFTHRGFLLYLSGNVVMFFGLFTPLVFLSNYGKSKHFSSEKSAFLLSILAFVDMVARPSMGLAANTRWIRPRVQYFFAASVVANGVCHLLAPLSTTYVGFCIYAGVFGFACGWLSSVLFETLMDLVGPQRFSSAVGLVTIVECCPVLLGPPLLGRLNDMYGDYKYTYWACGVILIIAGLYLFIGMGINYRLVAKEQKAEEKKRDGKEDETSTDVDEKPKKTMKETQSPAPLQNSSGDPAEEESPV
Format: cell-based.

Turning to `CC1(C)C=Cc2c(c3c(c4c(=O)c(-c5ccc(O)c(O)c5)coc24)OC(C)(C)CC3)O1` [ISOPOMIFERIN], where the note is “10 μM”, the Fraction is on record as 0.4279, the “Percent AZD3965” value is on record as 48.4955% and the Z.score is given as -4.042.
Compound `COc1ccc(-c2coc3cc(OC(C)=O)cc(OC(C)=O)c3c2=O)cc1` [BIOCHANIN A DIACETATE] yielded a Day1 of 0.3766 and a Day2 of 0.7944. Under “10 μM”, the Fraction stood at 0.4741, the “Percent AZD3965” value came to 39.8371% and the Z.score was -3.3205.
On to `C=CC(C1=CC(=O)C(OC)=CC1=O)c1ccc(O)cc1` (stereo not drawn) [DALBERGIONE, 4-METHOXY-4'-HYDROXY-], for which, where the note is “10 μM”, the Fraction stood at 0.1989, the “Percent AZD3965” value came to 90.4644% and the Z.score is reported as -5.573.
For `COc1c(O)cc2oc3cc(O)c(CC=C(C)C)c(O)c3c(=O)c2c1CC=C(C)C` [alpha-MANGOSTIN], in that order: 0.4127, 51.3584% and -4.281.
In the case of `CC(C)Cc1ccc(C(C)C(=O)O)cc1` (stereo not drawn) [Ibuprofen, reference compound], the “Percent AZD3965” value is on record as 16.6559% and the Z-score is -1.147.
For `Cc1c(NC(C)C)c(=O)n(-c2ccccc2)n1C` [Ramifenazone], in that order: -5.639% and 0.2843.
Consider `CCCCCCc1ccc(O)cc1O` [HEXYLRESORCINOL], for which the Day1 is 0.2333, the Day2 was 0.7463, the Fraction is 0.3126 and the “Percent AZD3965” value is given as 74.3516%. The Z.score is on record as -5.11.
Take `Oc1cc(Cl)ccc1Oc1ccc(Cl)cc1Cl` [Triclosan]: the Day1 is on record as 0.0998 and the Day2 is given as 0.8741. For the setting “10 μM”, the Fraction is recorded as 0.1142, the “Percent AZD3965” value is on record as 105.691% and the Z.score is -5.31.
Take `CCCCOc1ccc(CC(=O)NO)cc1` [Bufexamac]: the “Percent AZD3965” value is reported as 41.7896% and the Z-score is listed as -2.109.
As to `CC1=C(C)C(=O)C(C(CCCCCC(=O)O)c2ccccc2)=C(C)C1=O` (stereo not drawn) [SERATRODAST], the “Percent AZD3965” value is 84.979%.
Regarding `CC(=O)Nc1cccc(O)c1` [Metacetamol], the “Percent AZD3965” value is on record as -7.335% and the Z-score came out at 0.3699.
As for `O=[N+]([O-])c1ccc(CNc2nc(NCc3cccc(C(F)(F)F)c3)nc3[nH]cnc23)cc1` [TNP], the Day1 is 0.2699, the Day2 came to 0.8663, the Fraction turned out to be 0.3116 and the Offtarget_sub turned out to be 0.1335. Also, the Z.score is -4.697. For the same compound, where the note is “10 μM”, the Fraction came out at 0.3116, the “Percent AZD3965” value turned out to be 64.276% and the Z.score is on record as -4.697.
With `Cc1cnc(NC(=O)C2=C(O)c3ccccc3S(=O)(=O)N2C)s1` [Meloxicam], the “Percent AZD3965” value is recorded as 24.7769% and the Z-score is given as -1.695.
`N.S=C(S)N1CCCC1` [Ammonium pyrrolidinedithiocarbamate]: the Day1 stood at 0.3912, the Day2 stood at 0.8992, the Fraction stood at 0.4351 and the “Percent AZD3965” value was 48.1785%. Besides, the Z.score is listed as -3.255.
Turning to `CS(=O)(=O)c1ccc(-n2nc(C(F)(F)F)cc2-c2ccc(F)cc2)cc1` [SC-58125], the “Percent AZD3965” value was -2.07% and the Z-score is on record as 0.155.
For the compound `OCc1ccccc1O` [Salicyl alcohol], the “Percent AZD3965” value amounted to 5.564% and the Z-score is -0.4215.
In the case of OXYCLOZANIDE, the Day1 is on record as 0.1981 and the Day2 came out at 0.8387. Further, where the note is “10 μM”, the Fraction was 0.2362, the “Percent AZD3965” value turned out to be 84.9348% and the Z.score is recorded as -4.286.
